# Measurements reported in PubChem BioAssay AID463173 (ICCB-Longwood Screening Facility, Harvard Medical School, 2010).
# In all, about 52,000 compounds went through this assay and about 1,700 (3.3%) were called active. Cut-off read from the data, not from the text of the source: active = survival mostly below about 52% (no sharp cut-off); inactive = mostly above about 56%. Some of the results follow.
# Test system: Wild type
# Assay: S. aureus survival, RN4220 and DeltatarO strains – OD600, teichoic acid synthesis inhibitors, primary screen (AID 463173)
# Settings: S. aureus RN4220 wild type/DeltatarO growth, OD600, 18 h, active compounds read low, screened at 18.75 µg/mL (by protocol)
row,Structure (SMILES),survival
1,CCn1cc(C(=O)NCCc2ccccc2)c(=O)c2cc(S(=O)(=O)N3CCCCCC3)ccc21,inactive: 73%
2,Cc1nn(C(C)C(=O)N2CCN(c3ccc(F)cc3)CC2)c(=O)c2c1sc1ccccc12 (stereo not given),inactive: 104%
3,CC(=O)N1c2ccc(S(=O)(=O)N3CCC(C(=O)Nc4cccc(Cl)c4C)CC3)cc2CC1C (stereo not given),inactive: 89%
4,CC(C)(C)NC(=O)CCSc1nnc(-c2ccccc2)o1,inactive: 100%
5,Cc1cccc(Cn2cc(S(=O)(=O)c3ccccc3)c(=O)c3cc(F)c(N4CCOCC4)cc32)c1,inactive: 71%
6,CC(C)(C)C(=O)C1=C(O)C(=O)N(Cc2ccccc2)C1c1cccnc1 (stereo not given),inactive: 121%
7,CCOC(=O)Cn1c(=O)n(-c2cccc(Cl)c2)c2nc(-c3ccccc3Cl)nc(C(N)=O)c21,inactive: 89%
8,Cc1ccc2c(CC(=O)Nc3ccc(S(=O)(=O)N4CCCCC4C)cc3)coc2c1C (stereo not given),inactive: 86%
9,CCc1ccc2ncc3c(-c4ccc(F)cc4)nn(CC(=O)NC4CCCCC4)c3c2c1,inactive: 124%
10,CN(C)c1ccc(CNC(=O)Cc2ccc(NC(=O)N3CCCCc4ccccc43)cc2)cc1,inactive: 92%
11,COc1ccc(N2CCN(CCCNC(=O)c3nnc(Cc4ccc(F)cc4)o3)CC2)cc1,inactive: 116%
12,Cc1ccccc1OC(=O)c1nc(SCc2ccccc2F)ncc1Cl,inactive: 116%
13,COc1ccc(N2CCN(C(=O)c3cc4c(=O)oc5ccc(C)cc5c4s3)CC2)cc1,inactive: 120%
14,O=C1/C(=C\c2ccco2)SC(=S)N1Cc1ccccc1,inactive: 116%
15,Cc1c(C)n(Cc2ccccc2)c2ccc(C(=O)NCC(C)c3ccccc3)cc12 (stereo not given),inactive: 70%
16,Cc1ccc(N2CCN(S(=O)(=O)c3nnc(NC(=O)c4ccccc4)s3)CC2)cc1,inactive: 80%
17,CCOC(=O)CNC(=O)c1cc2c(=O)oc3ccccc3c2s1,inactive: 146%
18,CCOc1ccc(CCNC(=O)c2ccc(-n3c(C)cc4c3CCCC4)cc2)cc1OCC,inactive: 76%
19,c1ccc(-c2nc3ccccn3c2NC2CCCC2)nc1,inactive: 27%
20,O=C(Nc1ccccc1C(=O)OCc1cc(=O)n2nc(C3CC3)sc2n1)c1ccc(Cl)cc1,inactive: 77%
21,Cc1ccc(C)c(N2CCN(c3nc4ccc(C)cc4nc3-n3nc(C)cc3C)CC2)c1,inactive: 86%
22,CCOCCc1nnc(NC(=O)C(=O)c2cc(C)n(-c3ccc(C)c(C)c3)c2C)s1,inactive: 83%
23,O=C(Cn1cnc2nc3c(cc2c1=O)CCCC3)Nc1ccc(F)cc1Cl,inactive: 72%

row,Structure (SMILES),survival
1,Cc1cc(C)n(CCC(=O)Nc2ccc(Cl)cc2)n1,inactive: 72%
2,CCOc1ccc(N2CC(NC(=O)c3ccc4c(c3)OCO4)CC2=O)cc1 (stereo not given),inactive: 65%
3,CCCCNc1nc2c(S(=O)(=O)c3ccc(C)cc3)nnn2c2ccsc12,inactive: 113%
4,COc1ccccc1CNC(=O)CSc1nc(-c2ccc(OC)c(OC)c2)cc(C(F)(F)F)n1,inactive: 61%
5,CCOc1ccc(CCNC(=O)c2ccc3c(c2)N(Cc2ccc(F)cc2)CCS3)cc1,inactive: 78%
6,O=C(NCC(c1cccs1)S(=O)(=O)c1cccs1)c1ccc(F)c(F)c1 (stereo not given),inactive: 68%
7,Cc1ccc(N2CC(NC(=O)c3ccc(S(=O)(=O)N(C)C)cc3)CC2=O)cc1C (stereo not given),inactive: 81%
8,CCC(C)NC(=O)c1ccc2c(c1)sc1nc(-c3ccc(OC)cc3)cn12 (stereo not given),inactive: 77%
9,COC(=O)c1sccc1S(=O)(=O)N(CC(=O)Nc1cc(C)ccc1C)c1ccc(C)c(C)c1,inactive: 78%
10,C=CCc1c(C)nc(SC)nc1Nc1ccc(OC)cc1,inactive: 114%
11,O=C(CSc1nc2c([nH]c3ccccc32)c(=O)n1-c1cccc(Cl)c1)N1CCCC1,inactive: 63%
12,O=C(Cn1cc(S(=O)(=O)Cc2cccc(Cl)c2)c2ccccc21)Nc1ccccc1C(F)(F)F,inactive: 78%
13,CCCCc1ccc(-n2nc3ccc(NC(=O)c4cc5ccccc5o4)cc3n2)cc1,inactive: 75%
14,CC(C)Cc1cc(C(=O)NCc2ccc(Cl)cc2)no1,inactive: 112%
15,CCOC(=O)C1=C(c2ccccc2)N=C2SCC(=O)N2C1c1ccc(O)c(OC)c1 (stereo not given),inactive: 104%
16,CCc1ccc2oc(-c3ccc(C)c(NC(=O)c4cc([N+](=O)[O-])ccc4N4CCOCC4)c3)nc2c1,inactive: 80%
17,COC(=O)CN1C(=O)CSc2ccc(S(=O)(=O)Nc3ccc(F)c(Cl)c3)cc21,inactive: 88%
18,CCC(CC)C(=O)N1c2ccccc2C(C)(c2ccccc2)CC1(C)C (stereo not given),active: -2%
19,CSc1ncc(C(=O)Nc2cc(C)cc(C)c2)c(-c2ccccc2)n1,inactive: 73%
20,COc1ccc(-n2c(=O)c3c4c(sc3n(Cc3ccc(F)cc3)c2=O)CN(C(C)=O)CC4)c(OC)c1,inactive: 150%
21,COc1ccc(C(=O)NCCSc2c[nH]c3ccccc23)cc1OC,inactive: 94%
22,Clc1ccc(CSc2ccc(-c3cccs3)nn2)cc1,inactive: 114%
23,Cc1cc(C)c(Cn2c(=O)n(CCC(=O)NCCc3ccccc3)c(=O)c3ccccc32)c(C)c1,inactive: 74%

row,Structure (SMILES),survival
1,CN1CCN(C(CNC(=O)c2ccc(F)cc2)c2ccc3c(c2)OCO3)CC1 (stereo not given),inactive: 70%
2,COc1ccc(OC)c(CCNC(=O)c2c(C)oc3ncn(CC(C)C)c(=O)c23)c1,inactive: 83%
3,CC(=O)N1CCc2c(sc3c2c(=O)n(Cc2ccccc2)c(=O)n3Cc2ccc(Cl)cc2)C1,inactive: 108%
4,O=C(O)c1sc(Nc2ccccc2)nc1-c1ccccc1,inactive: 141%
5,CCOCCCn1c(SCC(=O)Nc2ccccc2CC)nc2ccccc2c1=O,inactive: 89%
6,CCCCCN1N=C(C)CC1=O,inactive: 91%
7,CC(=O)Nc1ccc(C(=O)CSc2nc3ccccc3n2C)cc1,inactive: 117%
8,CCOC(=O)Cn1c(=O)oc2cc(S(=O)(=O)N3CCN(c4cccc(Cl)c4)CC3)ccc21,inactive: 88%
9,Cc1ccc(NC(=O)c2cccc3c(=O)c4c([nH]c23)CCCC4)c(C)c1,inactive: 66%
10,N#Cc1cc2c(ccc3ccccc32)oc1=N,inactive: 109%
11,O=C(CNc1ccccc1Cl)N/N=C1\CCCc2ccccc21,inactive: 105%
12,CCN(CC)c1ccc(C(=O)N2CCc3c([nH]c4ccccc34)C2c2ccc(F)cc2)cc1 (stereo not given),inactive: 77%
13,CCOC(=O)C1=NNC2C(=O)N(c3cc(Cl)ccc3OC)C(=O)C12 (stereo not given),inactive: 110%
14,CCOC(=O)c1sc2ccccc2c1S(=O)(=O)Nc1ccc(OC)c(Cl)c1,inactive: 72%
15,CCOc1ccc(NC(=O)Nc2nnc(N3CCCCC3C)s2)cc1 (stereo not given),inactive: 73%
16,Cc1ccc(NC(=O)Nc2nnc(SCC(=O)N(C(C)C)C(C)C)s2)cc1,inactive: 70%
17,COc1cccc(CNC(=O)c2c(C)nn(-c3ccc(F)cc3)c2-n2cccc2)c1,inactive: 75%
18,Cc1ccccc1Cn1nnc2sc3c(c2c1=O)CCCC3,active: 0%
19,CCOC(=O)c1c(NC(=O)Nc2ccc(F)cc2)sc(C(=O)N(C)C)c1C,inactive: 74%
20,CCOC(=O)c1cc2c(=O)n3ccccc3nc2n(CC2CCCO2)c1=NC(=O)c1cccc(C)c1 (stereo not given),inactive: 75%
21,O=C(COc1ccccc1F)Nc1nnc(SCc2cc(=O)n3ccccc3n2)s1,inactive: 66%
22,COc1ccc(CCNC(=O)c2ccc3c(c2)N(Cc2ccccc2Cl)C(=O)c2ccccc2S3)cc1OC,inactive: 83%
23,COc1ccc(-c2cccc(NS(=O)(=O)c3cc(C(F)(F)F)ccc3Cl)c2)nn1,inactive: 59%

row,Structure (SMILES),survival
1,CCc1nc2ccc(C(=O)NCc3ccccc3C)cc2nc1CC,inactive: 77%
2,O=c1c(NCc2cccs2)nccn1-c1ccccc1,inactive: 74%
3,COc1ccc(-n2cc(-c3ccccc3)c3c(N4CCCC(C)C4)ncnc32)cc1 (stereo not given),inactive: 68%
4,Cn1cc(CCCC(=O)NCc2cccc(Br)c2)c2ccccc21,inactive: 77%
5,O=C(CS(=O)(=O)c1cccc2nsnc12)NCc1ccccc1Cl,inactive: 136%
6,Cc1ccc(CN2c3ccccc3-c3nc(SCC(=O)NCc4ccccc4)ncc3S2(=O)=O)cc1,active: -1%
7,Cc1ccc(N(CC(=O)Nc2ccc(F)cc2F)S(=O)(=O)c2cccs2)cc1,inactive: 82%
8,CN(C)C(=O)CN(C#N)c1nc(Cl)nc(N(C)C)n1,inactive: 110%
9,CCC(=O)C1=C(c2ccccc2)N(C(=O)CC)n2c(nnc2-c2ccccc2)S1,active: -6%
10,COc1ccc(S(=O)(=O)NNc2ncnc3sc4c(c23)CCCC4)cc1,inactive: 121%
11,Cc1c(NC=C(C#N)C#N)c(=O)n(-c2ccccc2)n1C,inactive: 111%
12,Cc1ccc(S(=O)(=O)NCCc2nnc3ccc(SCc4ccccc4F)nn23)cc1,inactive: 75%
13,CCn1c(C)nc2cc(Cl)ccc21,inactive: 101%
14,Cc1ccc(NC(=O)c2oc3ccc(S(=O)(=O)N4CCCCC4)cc3c2C)c(C)c1,inactive: 127%
15,CCCCCCc1cc2cc(-c3nnc(-c4cccc(Cl)c4)o3)c(=O)oc2cc1O,inactive: 72%
16,Cc1cccc(N2CCN(C(=O)C(C)n3nc(C)n4c(cc5occc54)c3=O)CC2)c1C (stereo not given),inactive: 84%
17,Cc1cc(C)c(NC(=O)CN2C(=O)C3(SCC(=O)N3c3ccc(F)cc3)c3ccccc32)c(C)c1 (stereo not given),inactive: 64%
18,Cc1cc(C)c(NC(=O)c2c(C)oc3c2C2=NCCN2C=N3)c(C)c1,inactive: 77%
19,CCc1ccc(CNC(=O)Cn2nc(-c3ccc(Cl)cc3)ccc2=O)cc1,inactive: 71%
20,COc1ccc(C2c3c(n(C)c4ccccc34)C(=O)N2CC(=O)Nc2ccc(C)cc2Cl)cc1 (stereo not given),inactive: 55%
21,CCN(CC)S(=O)(=O)c1ccc(-c2csc(=Nc3cccc(C(F)(F)F)c3)n2Cc2ccc3c(c2)OCO3)cc1,inactive: 159%
